According to PubChem BioAssay AID1508624 (National Center for Advancing Translational Sciences (NCATS), 2021):
Screen size: about 48,000 compounds; about 120 (0.25%) were called active. Roughly 4% stayed inconclusive and do not appear here. Calls come from the whole dose curve; as a rule, active = well fitted activation curve with a large enough effect; inconclusive = small, poorly fitted or top-dose-only effect, or another doubt; inactive = no such curve, though single readings can be large or run the other way. The list shows a part of the results.

Assay: Primary qHTS for Identification of Small Molecule Activators of Huntingtin-Antisense Promoter Activity; note: nearly all actives have a fitted effect of over 55% in size
Settings: HEK293 HTT-AS promoter firefly luciferase reporter (activity 0% = vehicle and -100% = no light), 24 h; series mostly up to 57.5 µM; activity change, positive = activation: at the top concentration
Summary of the method: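 HEK293 Fluc reporter, 2,500 cells/well, 24 h pre-culture; cpds up to 57.5 uM final, 24 h 37 degrees C; Dual-Glo, 10 min RT; normalized vehicle = 0%, zero RLU = -100%.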

SMILES | activity change, positive = activation
COc1ccc(-n2nc(C(=O)N3CCN(c4cccc(C)c4)C(C)C3)c3c4ccccc4n(C)c3c2=O)cc1Cl (configuration not stated) | inactive: -17.2%
COc1cccc(-n2c(=O)c3c4c(sc3n(Cc3ccccc3C#N)c2=O)CCCC4)c1 | inactive: 7.68%
Cc1ccccc1-c1noc(-c2ccc(NC3CCCC3)c([N+](=O)[O-])c2)n1 | inactive: -9.38%
O=S(=O)(c1ccc2nc(Nc3ccc(Br)cc3F)ccc2c1)N1CCCC1 | inactive: -12.2%
CN(C(=O)CSc1nc2ccc(NC(=O)c3ccccc3)cc2s1)c1ccccc1 | inactive: -26.8%
O=C(CSc1oc(-c2cccs2)nc1S(=O)(=O)c1ccccc1)Nc1ccc(F)cc1 | inactive: -23.5%
Cc1ccc(C2=NN(CCC(=O)NCCc3cccc(C)c3)C(=O)CC2)cc1 | inactive: -20.3%
COc1ccc(Cn2c(NCC(C)C)nc3c2c(=O)n(C)c(=O)n3C)cc1 | inactive: -14.3%
CC(=O)Nc1cccc(-c2nnc(SCC(=O)c3ccc([N+](=O)[O-])cc3)o2)c1 | inactive: 5.31%
COc1ccc(OC)c(CNC(=O)c2cnc(N(C)C)nc2)c1 | inactive: -5.88%
CCOc1ccccc1/C=C/c1onc(C)c1S(=O)(=O)N1CCC(C(=O)N2CCCCC2)CC1 | inactive: -4.29%
COc1cc(CN(C(=O)c2ccc(C)cc2)c2ccccn2)cc(OC)c1OC | inactive: -35.9%
Cc1ccc(-n2nc(C)c3c(C(=O)Nc4ccc(C)cc4Cl)cc(C)nc32)cc1 | inactive: 13.1%
CCOC(=O)CSc1nc(-c2ccc(OC)cc2)cc(C(F)(F)F)c1C#N | inactive: -17.6%
COc1ccc(NCc2cccn2-c2nnc(N3CCC(C)CC3)s2)c(OC)c1 | inactive: -80.7%
Cc1cccc(-c2nc(S(=O)(=O)c3ccccc3)c(N3CCN(c4ccccc4)CC3)o2)c1 | inactive: -4.44%
CSc1ccc(-c2nc3cc(C)ccn3c2Nc2ccc(C)cc2)cc1 | inactive: 19.9%
CCc1ccc(NC(=O)C(=O)NCCc2sc(-c3ccc(C)cc3)nc2C)cc1 | inactive: -7.04%
O=C(CSc1nc2c(c(=O)[nH]1)CCC2)Nc1cc(C(F)(F)F)ccc1Cl | inactive: -8.13%
Cn1ccc2c(OCC(=O)NCc3ccc(F)cc3)cccc2c1=O | inactive: -18.6%
COc1c(Cl)cc(Cl)cc1C(=O)Nc1cccc2cccnc12 | inactive: 3.85%
Cc1ccc(C(=O)c2cn(Cc3ccccc3)c3cc4c(cc3c2=O)OCCO4)cc1 | inactive: 10.5%
CCc1nnc(NC(=O)c2nc(SCc3ccc(F)cc3)ncc2Cl)s1 | inactive: 6.59%
O=C(O)/C=C\C(=O)O | inactive: 1.45%

SMILES | activity change, positive = activation
CCOc1ccc(OCC)c(NS(=O)(=O)c2ccc3c(c2)CCCN3C(C)=O)c1 | inactive: -20.9%
CCCCn1c(C2CC(=O)N(c3ccc(OCC)cc3)C2)nc2ccccc21 (configuration not stated) | inactive: -9.29%
O=C(OCC1CCCO1)c1ccc2c(c1)N(Cc1c(F)cccc1Cl)C(=O)c1ccccc1S2(=O)=O (configuration not stated) | inactive: -20.5%
CCOCCn1c(=NC(=O)c2ccc3c(c2)OCCO3)sc2cc(OCC)ccc21 | inactive: 17.4%
Cc1cc(C)c(NC(=O)c2ccc3nc(C(C)C)oc3c2)c(C)c1 | inactive: -9.86%
COCC(C)NC(=O)C1=CC(c2ccc3c(c2)OCO3)=NS(=O)(=O)N1C (configuration not stated) | inactive: -20%
CCC(C(=O)NC1CCCCC1)n1nc(C)c2sc3ccccc3c2c1=O (configuration not stated) | inactive: -3.7%
COc1ccc(S(=O)(=O)N2CCC(c3nnnn3-c3ccccc3)CC2)cc1OC | inactive: -25.5%
Cc1cccc(S(=O)(=O)c2cn(Cc3ccc(F)cc3)c3cc(N4CCOCC4)c(F)cc3c2=O)c1 | inactive: -43.1%
Cc1ccc(Cl)cc1N1CCN(C(=O)c2cnc3c(-c4ccc(F)cc4)c(C)nn3c2C)CC1 | inactive: 2.24%
O=C(Cn1cc(SCc2ccc(F)cc2)c2ccccc21)N1CCCC1 | inactive: 16.1%
CCN(CC)S(=O)(=O)c1ccc2c(c1)c(=O)c(C(=O)N1CCN(c3cc(C)ccc3C)CC1)cn2C | inactive: -26.9%
CC1CCCN(Cc2c(O)ccc3c(=O)c(-c4ccccc4Cl)c(C(F)(F)F)oc23)C1 (configuration not stated) | inactive: -7.98%
Cc1ccccc1C(OCCN(C)C)c1ccccc1 (configuration not stated) | inactive
O=C(NC1CCCC1)c1ccc(CSc2nc3cccnc3n2Cc2ccccc2F)cc1 | inactive: -33.1%
O=C(Cn1c(-c2cccs2)cc2ccccc21)NCCCN1CCN(c2ccc(F)cc2)CC1 | inactive: -32.5%
Cc1c(I)c(=O)n(-c2ccccc2)n1C | inactive: -6.35%
Cc1cc(C)c(NS(=O)(=O)c2ccc3c(c2)NC(=O)CCS3)c(C)c1 | inactive: -23%
O=C(COc1ccc(Cl)cc1)N(Cc1ccco1)c1ccccn1 | inactive: 30.8%
Cc1cccc(Cn2c(CNC(=O)c3ccccc3)nc3ccccc32)c1 | inactive: -11.8%
Cc1ccn2c(Nc3ccc(C(C)C)cc3)c(-c3ccsc3)nc2c1 | inactive: 21.1%
CC(C)OCCCNC(=O)c1c2c(nc3ccccc13)C(=O)N(C1CCCCC1)C2 | inactive: -12.8%
CCOC(=O)c1cc(-c2ccccc2)n(CC(=O)Nc2cc(Cl)c(OC)cc2OC)c1C | inactive: -5.41%
